B1: LINE1-mini (parent)
chain: GGCAGAGCUCAACACAGCGUGGCAAAGUGGCUGUGGCUAGACUGCC

Results on 167 variants are retold here after the RNAGym collection of RNA variant scans (doi:10.7554/elife.90254).

The source gives no read counts; variants with many changes may rest on few reads.

The variants in this data set derive from B1. In words: self-cleavage, relative activity (ratio to wild type); higher = more cleavage; in vitro, sequencing; the parent is a self-cleaving ribozyme.
As to G19A G22A U34G G40U, the self-cleavage was 0.02.

Consider C18U G33U C42U C45G, for which the self-cleavage was 0.11.

For C18U G36A C42A, the self-cleavage stood at 0.14.

Turning to C18U G35C G40U, the self-cleavage amounted to 0.03.

Consider G19C G21C C46A, for which the self-cleavage amounted to 0.89.

For the variant G19A A39G U43C, the self-cleavage worked out at 0.06.

As for C18U U28G C37U G40A C45U, the self-cleavage came to 0.34.

In the case of G19A G36A C46A, the self-cleavage was found to be 0.07.

With C18U G44C C46A, the self-cleavage was 0.05.

As to G19A A24G G27A C31A C37G, the self-cleavage amounted to 0.01.

Take G19A U20G G21A G22A G27U U38A: the self-cleavage came to 0.12.

Regarding G19A U28C G40C, the self-cleavage is 0.12.

As to G19A G22U G40U C45A, the self-cleavage was 0.03.

Consider C18U U20A A41G, for which the self-cleavage stood at 0.34.

Take G19A A25G G33U C45U C46U: the self-cleavage is 0.07.

With G19C C23U A25C A26G G35U A41U, the self-cleavage was 0.05.

As for C18U C23A U34G U43C, the self-cleavage was found to be 0.02.

Consider C18U C23A C42G C45A, for which the self-cleavage was 0.11.

As for C18U U43G G44U, the self-cleavage came out at 0.06.

Regarding C18U G21U A39C, the self-cleavage turned out to be 0.12.

In the case of C18U C37G G40A A41C, the self-cleavage is 0.01.

For G19A C31A U38G, the self-cleavage was determined as 0.13.

For the variant C18U G19U G21U A26U G36U, the self-cleavage was 0.02.

Turning to C18U G29C A39C C45U, the self-cleavage turned out to be 0.07.

Turning to G19C A24C C45G, the self-cleavage came out at 0.

As to G19C A25U G33A, the self-cleavage was 0.05.

For C18U C23G G33C U38C, the self-cleavage stood at 0.02.

With G19A U32C G33U, the self-cleavage worked out at 0.04.

With G19A C23G C37A, the self-cleavage worked out at 0.03.

Consider G19A G33U G35A C37A, for which the self-cleavage worked out at 0.03.

On to C18U G27U C31G A39G, for which the self-cleavage was 0.01.

Take C18U U28C G36C C46G: the self-cleavage was found to be 0.07.

Take G19C A26G U43A: the self-cleavage amounted to 0.01.

For G19A G27A G35A, the self-cleavage turned out to be 0.14.

In the case of C18U G27C G29A U38G, the self-cleavage came to 0.02.

As for C18U U32G C46A, the self-cleavage came to 0.01.

On to G19A G35U A41U G44A, for which the self-cleavage worked out at 0.04.

On to G19C C37U U43C, for which the self-cleavage stood at 0.04.

As to G19C G30A C37U C42U, the self-cleavage was found to be 0.04.

In the case of G19C G22C G29U U38A G40U, the self-cleavage stood at 0.06.

In the case of C18U A26U G35U, the self-cleavage turned out to be 0.02.

Regarding C18U C31G G33U, the self-cleavage came out at 0.03.

On to G19A A25G U38G U43G G44C, for which the self-cleavage amounted to 0.02.

Turning to G19C G29U C45A C46U, the self-cleavage turned out to be 0.38.

Consider G19A U32C G44U, for which the self-cleavage came to 0.04.

G19A U34C A39C: the self-cleavage worked out at 0.02.

Regarding C18U G29U C31G A41C, the self-cleavage came to 0.03.

Take G19A U20C A25C A26U U34A: the self-cleavage turned out to be 0.01.

As for G19C A24G G35C, the self-cleavage was 0.14.

As to G19A A25U G36U, the self-cleavage came out at 0.06.

With G19A A24U G33A, the self-cleavage is 0.12.

Regarding G19A C31A G36C, the self-cleavage came to 0.05.

Turning to C18U G21C C42U, the self-cleavage worked out at 0.53.

With C18U A25U C45G, the self-cleavage is 0.18.

G19A G22A C37U: the self-cleavage came out at 0.03.

On to G19C G33U G36U U43C, for which the self-cleavage came out at 0.06.

C18U A26U C31A: the self-cleavage worked out at 0.07.

As for C18U U34C G40A, the self-cleavage is 0.02.

For G19A G22U A39G, the self-cleavage came to 0.14.

Take G19A A26G G29U: the self-cleavage came to 1.88.

With C18U G22A A25G G33U G35C, the self-cleavage amounted to 0.03.

On to C18U G21A G27U G35C, for which the self-cleavage was determined as 0.02.

Take C18U C23A A25C G27U: the self-cleavage worked out at 1.47.

On to C18U G27A G29C U32A U34G, for which the self-cleavage came to 0.04.

Consider C18U G19U G40U A41U C42U, for which the self-cleavage is 0.03.

G19C A24U U38G A39G C42U: the self-cleavage was found to be 0.

Regarding G19C U20A G21C, the self-cleavage turned out to be 0.4.

In the case of C18U U32G G36U, the self-cleavage is 0.02.

For G19C G27C U28G G35U, the self-cleavage was found to be 0.01.

Regarding C18U G40A C46A, the self-cleavage came out at 0.02.

Consider G19C C37U U38A, for which the self-cleavage came to 0.04.

Turning to G19A C31U U43C, the self-cleavage turned out to be 0.02.

On to C18U G19C U20A, for which the self-cleavage turned out to be 0.13.

Take G19C G21A G36U G44C: the self-cleavage was found to be 0.02.

Consider C18U C23A U38A G40U U43C, for which the self-cleavage worked out at 0.1.

As for C18U C31U G35A G44A, the self-cleavage amounted to 0.02.

Consider C18U U28A G33U G40C C46A, for which the self-cleavage is 0.01.

For the variant G19A U20C G21U, the self-cleavage was determined as 0.98.

Take G19A U28C C31G C37A: the self-cleavage stood at 0.05.

As to G19A G40U C45U, the self-cleavage is 0.14.

Consider G19C U28G C45U, for which the self-cleavage was determined as 0.36.

Regarding G19C G30U A41G, the self-cleavage amounted to 0.06.

Regarding C18U G30A G40A G44A, the self-cleavage was found to be 0.01.

Consider C18U G19U C37G, for which the self-cleavage worked out at 0.03.

With G19A G22U G30C, the self-cleavage was found to be 1.09.

On to G19A C23U G29U U38G, for which the self-cleavage was 0.

For G19A G33C U43C, the self-cleavage is 0.03.

Consider G19C G21A C37A G40C, for which the self-cleavage is 0.02.

For G19C G21A U32A, the self-cleavage was 0.19.

Consider G19C G35C G40U, for which the self-cleavage was 0.07.

For the variant G19C G21U A39G, the self-cleavage is 0.06.

Turning to G19C U20G G21C, the self-cleavage came out at 1.57.

As for C18U G19C C46G, the self-cleavage is 0.2.

As to C18U C37A G44A, the self-cleavage is 0.04.

C18U C23A U34G: the self-cleavage is 0.13.

G19C C23U G33A C37A: the self-cleavage is 0.09.

G19C G21U A25U G30U C37A: the self-cleavage worked out at 0.07.

As to G19C A26U U32G, the self-cleavage was 0.38.

Turning to C18U G29A C37U, the self-cleavage came out at 0.04.

For the variant G19A C23U G27A G29A U32G C37A U38C, the self-cleavage stood at 0.03.

As to C18U U34G A39G C46U, the self-cleavage worked out at 0.01.

As for G19A C23A G44A, the self-cleavage was found to be 0.04.

G19A C31G A39U: the self-cleavage is 0.08.

Consider G19A A26U G35A C37G, for which the self-cleavage stood at 0.04.

Take C18U G36C C46U: the self-cleavage was determined as 0.01.

G19A C23A G27U: the self-cleavage came out at 0.72.

For the variant G19C U28A A41G, the self-cleavage was 0.19.

Regarding G19C G27U C46U, the self-cleavage amounted to 0.12.

G19A G40A C42A: the self-cleavage was determined as 0.1.

Take C18U G30C C45A C46U: the self-cleavage is 0.01.

As for G19C U28C G44U, the self-cleavage is 0.25.

In the case of C18U G21U C37U G44C, the self-cleavage was 0.03.

As to C18U G27U G30U, the self-cleavage is 0.57.

For G19C G21U C23U, the self-cleavage stood at 1.21.

As for C18U G19A A26C U34A, the self-cleavage is 0.1.

Take G19A U20G U32G G33U G35A U38A: the self-cleavage was 0.03.

For the variant G19C A25G G27A, the self-cleavage was 0.16.

With G19A G22A A26U G27A G29U, the self-cleavage turned out to be 0.26.

Consider G19A U34A G44A, for which the self-cleavage stood at 0.05.

For the variant G19C G29U U38A G40U A41U, the self-cleavage was determined as 0.05.

For C18U G27A U28C U32C, the self-cleavage is 0.19.

Consider C18U C37A A41C, for which the self-cleavage is 0.03.

Consider G19C G27U U34A, for which the self-cleavage was determined as 0.08.

In the case of C18U G19C C23A, the self-cleavage is 0.53.

For the variant C18U G22C C31U, the self-cleavage was 0.08.

Turning to G19C C23U G40U, the self-cleavage was 0.29.

Consider G19A A39G G40U, for which the self-cleavage was 0.07.

Consider G19C U20C A26G, for which the self-cleavage worked out at 0.55.

Take C18U G30A G40U: the self-cleavage turned out to be 0.13.

For G19A A26C U32A C42A, the self-cleavage turned out to be 0.02.

With G19C G21C G30C C42U, the self-cleavage came to 0.06.

Regarding C18U G22C U43A C45U, the self-cleavage was found to be 0.03.

On to G19C U20C U43A, for which the self-cleavage is 0.03.

Take C18U C23A C42A: the self-cleavage was 0.14.

For C18U G22C G29A, the self-cleavage was determined as 2.29.

Consider C18U C45U C46A, for which the self-cleavage came out at 0.39.

For the variant G19C C42A G44C, the self-cleavage stood at 0.03.

With G19A A26C G29C U34C A41C C42U, the self-cleavage is 0.07.

In the case of C18U U20A C23A A25G, the self-cleavage was 0.64.

Take G19C A24G G33A G36U: the self-cleavage turned out to be 0.08.

C18U G35A G40U: the self-cleavage stood at 0.07.

Turning to G19C G22U U34G G36U C42U, the self-cleavage is 0.1.

As for G19A G36C C37A C45G, the self-cleavage was determined as 0.06.

In the case of G19C G21C G40U, the self-cleavage was 0.03.

In the case of C18U U20A A25U U28G G36U, the self-cleavage is 0.03.

For the variant C18U G21C G29A, the self-cleavage stood at 2.05.

On to C18U G21C U28C A41G C42U, for which the self-cleavage was 0.06.

G19C U20G U34A C37G: the self-cleavage was determined as 0.04.

On to G19C U28A G33A, for which the self-cleavage came out at 0.38.

In the case of C18U A26G G33U, the self-cleavage worked out at 0.03.

Turning to G19A G33U G35U U38C C45A, the self-cleavage was found to be 0.01.

In the case of G19A A26C G33A, the self-cleavage came out at 0.4.

With C18U C23G G35C U38G, the self-cleavage came to 0.

Consider G19C C31U C37U A41C C46A, for which the self-cleavage is 0.01.

Turning to G19A A25C U32C, the self-cleavage was determined as 0.03.

Regarding G19A C42U U43G, the self-cleavage is 0.56.

In the case of G19C A24C G30U, the self-cleavage amounted to 0.28.

C18U G21U A24G: the self-cleavage was 0.62.

Regarding C18U G22A C45U, the self-cleavage came out at 1.

On to C18U G21U A26U G36A U38A A39G G44A, for which the self-cleavage was 0.04.

Take C18U U43C C46A: the self-cleavage amounted to 0.12.

For C18U U20A G27C C31G A39C, the self-cleavage stood at 0.01.

Regarding G19C C23A C37U, the self-cleavage was determined as 0.03.

As to C18U G44A C46U, the self-cleavage is 0.2.

C18U U32A A39C: the self-cleavage came out at 0.12.

As to C18U G19U G33A G36A G40U C46G, the self-cleavage amounted to 0.02.

Regarding G19C G21C A39C, the self-cleavage came out at 0.03.
